Measured values as given in PubChem BioAssay AID445 (National Center for Advancing Translational Sciences (NCATS), 2006).
Out of some 110,000 compounds screened, about 40 (0.04%) were called active. Inconclusive means that the source gave no clear call. Such entries were picked first, then a sample of the others. Calls come from the whole dose curve; as a rule, active = well fitted curve in the direction sought with a large enough effect in the signal ratio (not every such curve was filed as active); inconclusive = small, poorly fitted or top-dose-only effect, or a change in a side signal; inactive = flat fitted curve, though single readings scatter; the % refers to the signal ratio. Where the call is inconclusive, the potency comes from a doubtful curve fit.

Assay: IkB Signaling;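 for IkBa stabilization activation: 0% = basal untreated cells and 100% = reference inhibitor full response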
Conditions: ABC-DLBCL IkBa-CBG/CBR dual luciferase ratio (green luciferase fused to IkBa over red control in OCI-Ly3 lymphoma cells), 4 h; IkBa stabilization activation: at 57.1 µM (top of the series), scaled: untreated 0%, proteasome inhibitor 100% unless noted
Summary of the method: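 In this assay, an IκBα–CBG68 fusion accumulates when IKK-driven degradation is blocked; native CBR normalizes for cell number. OCI-Ly3 cells were treated 4 h with compound and doxycycline, then green and red light read after Chroma-Glo addition.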
Potency is the fitted concentration of half-maximal effect.

SMILES | IkBa stabilization activation | Potency
Cc1ccc(Cl)cc1NC(=O)c1cc(S(=O)(=O)N2CCCCCC2)cn1C | inconclusive: 1.81% [signal inhibitor] | –
CCc1ccc2c(c1)NC(c1cccnc1)=NC(c1ccc(C(C)(C)C)cc1)=N2 | inconclusive: -2.98% [signal inhibitor] | –
COc1cc(C2CC(=O)Nc3c2c(C)nn3-c2nncc(-c3ccccc3)n2)cc(OC)c1OC (configuration not stated) | inconclusive: 2.24% [signal inhibitor] | –
O=C(CSc1nc(-c2cccs2)nc2cc(=O)[nH]n12)Nc1ccccc1Cl | inconclusive: -1.06% [signal inhibitor] | –
CCn1c(SCc2ccccc2F)nc(=O)c2c(C(=O)OC)cc(C3CC3)nc21 | inconclusive: -3.07% [signal inhibitor] | –
Cc1c(O)ccc(C(=O)COc2ccccc2F)c1O | inconclusive: 11.4% [signal inhibitor] | –
CCOc1ccc(-c2cc(C(=O)NCc3ccc(C)cc3)c3ccccc3n2)cc1 | inactive: -2.24% | –
Cc1cccc(N2CCN(C(=O)c3ccc(NC(=O)c4nsc5ccccc45)cc3)CC2C)c1 (configuration not stated) | – | inconclusive: 10 µM [signal inhibitor, partial curve]
NC1(C(=O)O)C[C@H](C(=O)O)[C@H](C(=O)O)C1 (some centres not stated) | inactive: 0.246% | –
CCOc1ccc(Cl)cc1C1CC(=O)Nc2cc(OC)c(OC)c(OC)c21 (configuration not stated) | inactive: 7.83% | –
CCOC(=O)C1CCCN(C(=O)Cn2ncc3c([nH]c4ccc(C)cc43)c2=O)C1 (configuration not stated) | inconclusive: 1.28% [signal inhibitor] | –
CCCC(CCC)C(=O)Nc1cccc(-c2cn3cccnc3n2)c1 | inconclusive: 3.36% [signal inhibitor] | –
CCOC(=O)NC(=O)CSc1nnc(C)s1 | inactive: 0.511% | –
O=C1CC(N2CCN(S(=O)(=O)c3cccc(C(F)(F)F)c3)CC2)C(=O)N1Cc1ccccc1 (configuration not stated) | inactive: 2.22% | –
CCN(Cc1ccccc1)C(=O)C1CCN(S(=O)(=O)c2c(C)noc2/C=C/c2ccc(C)cc2)CC1 | inactive: -1.33% | –
COc1ccccc1CNC(=O)c1sc2nc3n(c(=O)c2c1C)CCC3 | inconclusive: 3.47% [signal inhibitor] | –
CCOc1ccc(-c2nnc(NC(=O)c3ccc(OCC(C)C)c(OC)c3)o2)cc1 | inconclusive: 4.62% [signal inhibitor] | –
Fc1ccccc1COc1cccc(/C=N/n2cnnc2)c1 | inactive: 2.7% | –
CCc1cnc2c(c1SCC(=O)Nc1cc(Cl)ccc1OC)c(=O)n(C)c(=O)n2C | inconclusive: 3.48% [signal inhibitor] | –
COc1ccc(-c2noc(CSc3nnc(-c4ccc(Cl)cc4)n3C)n2)cc1OC | inconclusive: -0.0897% [signal inhibitor] | –
CCOC(=O)c1cnc2c(C(F)(F)F)cccc2c1Nc1cccc(C(=O)OC)c1 | inconclusive: 7.58% [signal inhibitor] | –
O=C(c1cc(-c2ccccc2)on1)N1CCN(Cc2ccc3c(c2)OCO3)CC1 | inconclusive: 8.78% [signal inhibitor] | –
Cc1ccc(CNC(=O)C2CCCN(S(=O)(=O)c3ccc4c(ccn4C)c3)C2)cc1 (configuration not stated) | inconclusive: 4.83% [signal inhibitor] | –
CCc1ccc(CNC(=O)C2CCN(C(=O)N3CC(CC)Oc4ccc(C)cc43)CC2)cc1 (configuration not stated) | inconclusive: 4.59% [signal inhibitor] | –

SMILES | IkBa stabilization activation | Potency
O=c1[nH]c(NCCO)nc2c1C1(CCCCC1)Cc1ccccc1-2 | inconclusive: 9.74% [signal inhibitor] | –
COc1ccccc1Nc1c2c(nc3ccc(NC(=O)c4cccc(F)c4)cc13)CCCC2 | inactive: -1.09% | –
Cc1nn(C(=O)c2ccc3c(c2)OCO3)c(N)c1-c1ccccc1 | inactive: 11.8% | –
O=C(NC1CCCC1)c1ccc2c(c1)N(Cc1ccccc1Cl)C(=O)c1ccccc1S2 | inconclusive: 3.37% [signal inhibitor] | –
Cc1cc(C)c(NC(=O)CSc2ncc(S(=O)(=O)c3ccc(C(C)(C)C)cc3)c(=O)[nH]2)c(C)c1 | inconclusive: 4.18% [signal inhibitor] | –
Cc1ccc(OCc2nc(-c3ccc(C(=O)NCCc4ccc(S(N)(=O)=O)cc4)cc3)oc2C)cc1 | inactive: -1.44% | –
COC(=O)c1c(NC(=O)CCCOc2ccccc2C)sc2c1CCC(C)C2 (configuration not stated) | inconclusive: 1.95% [signal inhibitor] | –
O=C(Cc1cccs1)Nc1nc2c(s1)CCCC2 | inconclusive: 1.93% [signal inhibitor] | –
O=C(Nc1ccc2nc(SCC(=O)N3CCCC3)sc2c1)c1ccccc1F | inconclusive: -1.03% [signal inhibitor] | –
COc1ccc(CNC(=O)c2c(Nc3ccccc3C)sc(C(=O)c3ccccc3)c2N)cc1 | inconclusive: 0.637% [signal inhibitor] | –
CC1CN(C(=O)N2CCC(C(=O)NCc3ccco3)CC2)c2cc(Cl)ccc2O1 (configuration not stated) | inconclusive: 0.958% [signal inhibitor] | –
COc1ccc(NC(=O)c2cc(-c3ccccc3O)no2)cc1 | inconclusive: 1.09% [signal inhibitor] | –
O=C(CSc1nc(-c2cccs2)nc2cc(=O)[nH]n12)Nc1ccc(F)cc1 | inconclusive: 0.388% [signal inhibitor] | –
CCOc1ccc(NC(=O)CNS(=O)(=O)c2ccc(Br)s2)cc1 | inconclusive: 0.206% [signal inhibitor] | –
CCOC(=O)CSc1nc2ccc(NC(=O)c3ccccc3)cc2s1 | inconclusive: 5.44% [signal inhibitor] | –
CCOC(=O)Cn1c(=O)oc2cc(S(=O)(=O)Nc3ccc(N(CC)CC)cc3C)ccc21 | – | inconclusive: 5.01 µM [signal inhibitor, single point]
Cc1ccc(C)c(N2CCN(Cc3nnc(-c4ccccc4)o3)CC2)c1 | inconclusive: 15.7% [signal inhibitor] | –
O=C(CSc1n[nH]c(-c2ccncc2)n1)c1ccccc1 | – | inconclusive: 31.6 µM [rising, partial curve]
Cc1cccc(C)c1NC(=O)Cn1nc(C)c2sc3ccccc3c2c1=O | inactive: 0.517% | –
COC(=O)c1ccccc1NC(=O)CSc1nc2c(c(=O)n(C)c(=O)n2C)n1C | inactive: -0.501% | –
CCCC(=O)Nc1nc(-c2ccc3c(c2)OCCO3)cs1 | inactive: 2.15% | –
CCOC(=O)C1=C(C)NC(=O)NC1c1ccc(OC(C)C(=O)O)c(OC)c1 (configuration not stated) | inactive: 1.12% | –
COC(=O)c1nc(NC(C)=O)n[nH]1 | inactive: 0.545% | –
CCn1cc2nc(SCc3ccccc3F)n(Cc3ccc(C)cc3)c(=O)c2n1 | inactive: -0.975% | –

SMILES | IkBa stabilization activation | Potency
CCCS(=O)(=O)Nc1cc2c(cc1NCc1ccccc1)n(C)c(=O)n2C | – | inconclusive: 25.1 µM [signal activator]
CCOc1ccc(NC(=O)CCS(=O)(=O)c2ccc3c(c2)n(C)c(=O)c(=O)n3C)cc1 | inactive: 0.924% | –
Nc1nnc(SCC(=O)NCc2ccc3c(c2)OCO3)s1 | inactive: 1.37% | –
Cc1ccc(-c2[nH]nc3c2C(c2ccoc2)C(C#N)=C(N)O3)cc1C (configuration not stated) | inconclusive: 4.69% [signal inhibitor] | –
COc1ccc(-n2c(Cc3cccn3C)nnc2SCC(=O)Nc2ccc(Cl)cc2)cc1 | inconclusive: 0.584% [signal inhibitor] | –
Cc1nc2c(C(=O)NC(C)c3ccccc3)cnn2c(C)c1Cc1ccccc1 (configuration not stated) | inconclusive: -0.321% [signal inhibitor] | –
COC(=O)c1cc2occc2n1Cc1nc(-c2ccc(C)cc2)oc1C | inconclusive: -0.673% [signal inhibitor] | –
Cc1cccc(NC(=O)c2cnc3sccn3c2=O)c1 | inactive: 2.12% | –
CC(C)Oc1ccc(N2CC(C(=O)Nc3ccccc3F)CC2=O)cc1 (configuration not stated) | inactive: 1.48% | –
CCC(=O)Nc1nnc(S(=O)(=O)N2CCc3ccccc32)s1 | inconclusive: 0.499% [signal inhibitor] | –
CSc1ccc(C2Nc3ccccc3-c3cc(C)nn32)cc1 (configuration not stated) | inconclusive: 2.5% [signal inhibitor] | –
COc1ccc(C(OCCN2CCC[C@@H](C(=O)O)C2)(c2ccc(OC)cc2)c2ccc(OC)cc2)cc1 | inactive: 0.329% | –
Cc1cc(C(=O)COc2nncc3ccccc23)c(C)n1C | inconclusive: 12.1% | –
Cc1cccc(NC(=O)c2cc(S(=O)(=O)N3CCC4(CC3)OCCO4)ccc2F)c1 | inconclusive: 3.8% [signal inhibitor] | –
COc1ccc(N2CC(NC(=O)c3ccc(S(=O)(=O)N4CCCCC4)cc3)CC2=O)cc1OC (configuration not stated) | inconclusive: 2.23% [signal activator] | –
COc1cc(OC)cc(-c2nc3nc(C)c(CCC(=O)Nc4cc(F)ccc4F)c(C)n3n2)c1 | inconclusive: 2.55% [signal inhibitor] | –
CCOC(=O)c1ccc(NC(=O)Cn2cc(C(=O)c3ccc(Cl)cc3)c(=O)c3ccc(C)nc32)cc1 | inconclusive: 3.31% [signal inhibitor] | –
COc1ccc2oc(-c3ccc(C)c(NC(=O)Cc4ccc(Cl)cc4)c3)nc2c1 | inconclusive: 15.5% [signal inhibitor] | –
CCOc1cccc(C(=O)Nc2cccc(-c3nnc(-c4ccccc4)o3)c2)c1 | inconclusive: -3.16% [signal inhibitor] | –
Cc1nc2cc(-c3ccccc3)nn2c(C)c1CCC(=O)N1CCN(c2ccccc2)CC1 | inconclusive: 9.7% [signal inhibitor] | –
O=C(NCCc1csc(-c2ccc(F)cc2)n1)c1ccc(Br)o1 | inconclusive: -2.84% [signal inhibitor] | –
Cc1ccccc1CN1CCN(CC(=O)NCc2ccccc2Cl)C1=O | inconclusive: -0.229% [signal inhibitor] | –
Cc1nc(C)c(C(=O)Nc2cccc(Cl)c2)o1 | inconclusive: 16.1% [signal inhibitor] | –
Cc1cccc(-c2nc(Cn3c(SCc4cccc(C(F)(F)F)c4)nc4ccncc43)c(C)o2)c1 | inactive: -2.32% | –
